The values that follow come from paper PMC11995724, “Antibiotic target discovery by integrated phenotypic and activity-based profiling of electrophilic fragments” (Cell chemical biology, 2025).

Hit rate of the full screen: of about 3,200 compounds, about 110 (3.4%) showed an effect of 50% or more. The list shows a part of the results.

The test system of the assay is T1, V. cholerae SAD30.
T1 construct: SAD30
More on the design: species or system S. aureus MSSA476 (TSB) or V. cholerae SAD30 (LB); 384-well bacterial growth screen at 25 uM, OD600 relative to DMSO control. The note with it: relative growth, OD600, LB; 25 µM; inhibitor.
With `COCCNC(=O)C(C#N)=Cc1c(Cl)cccc1Cl` [8-O13, 2-cyano-3-(2,6-dichlorophenyl)-N-(2-methoxyethyl)prop-2-enamide], the “% of control remaining” value is given as 69.6805%. For the compound `N#CC(C(=O)NC1CCCCC1)=C1N=C(N)c2ccccc21` [9-N06, 2-(3-amino-1H-isoindol-1-ylidene)-2-cyano-N-cyclohexylacetamide], the “% of control remaining” value is reported as 86.4038%. Then `COc1cccc(NC(=O)C(C#N)=Cc2cccc(Cl)c2Cl)c1` [8-F06, 2-cyano-3-(2,3-dichlorophenyl)-N-(3-methoxyphenyl)prop-2-enamide], with 72.8076%; and `COC(=O)c1c(C(=O)CCl)c(C)n(C2CC2)c1C` [10-H03, methyl 4-(2-chloroacetyl)-1-cyclopropyl-2,5-dimethyl-1H-pyrrole-3-carboxylate], with 105.513%.

On to `O=C(CCl)NC1CCCc2c1cnn2Cc1ccccc1` (stereo not drawn) [7-F20, N-(1-benzyl-4,5,6,7-tetrahydro-1H-indazol-4-yl)-2-chloroacetamide], for which the “% of control remaining” value is 82.075%. For the compound `CC(Cl)C(=O)c1c(N)n(C)c(=O)n(C)c1=O` (stereo not drawn) [10-F22, 6-amino-5-(2-chloropropanoyl)-1,3-dimethyl-1,2,3,4-tetrahydropyrimidine-2,4-dione], the “% of control remaining” value was 103.643%. For the compound `COc1ccc(C=C(C#N)C(=O)Nc2ccccc2OC)cc1O` [8-J19, 2-cyano-3-(3-hydroxy-4-methoxyphenyl)-N-(2-methoxyphenyl)prop-2-enamide], the “% of control remaining” value stood at 74.5751%. Take `C=CC(=O)Nc1ccc2occc2c1` [3-H14, N-(1-benzofuran-5-yl)prop-2-enamide]: the “% of control remaining” value worked out at 89.2667%. Then `C=CC(=O)N1CCCC(CS(=O)(=O)NC)C1` (stereo not drawn) [2-E18, N-methyl-1-[1-(prop-2-enoyl)piperidin-3-yl]methanesulfonamide], with 95.4453%; and `C[C@H](NC(=O)CCl)C(=O)N1CCCCC1` [7-L14, 2-chloro-N-[(2S)-1-oxo-1-(piperidin-1-yl)propan-2-yl]acetamide], with 80.489%. In the case of `C=CC(=O)NCc1cnc(N2CCOCC2)s1` [1-M03, N-{[2-(morpholin-4-yl)-1,3-thiazol-5-yl]methyl}prop-2-enamide] it was 98.5052%. In the case of `C=CC(=O)N(C)CC(=O)N1CCCCC1c1nc(C)no1` (stereo not drawn) [3-K17, N-methyl-N-{2-[2-(3-methyl-1,2,4-oxadiazol-5-yl)piperidin-1-yl]-2-oxoethyl}prop-2-enamide] it was 92.0897%; in that of `COc1ccc2[nH]cc(C3=CCN(C(=O)C=CCN(C)C)CC3)c2c1` [10-F03, 4-(dimethylamino)-1-[4-(5-methoxy-1H-indol-3-yl)-1,2,3,6-tetrahydropyridin-1-yl]but-2-en-1-one], 105.202%. `COc1ccc2ccccc2c1C=C(C#N)C(=O)N1CCCC1` [8-P12, 3-(2-methoxynaphthalen-1-yl)-2-(pyrrolidine-1-carbonyl)prop-2-enenitrile]: the “% of control remaining” value was determined as 68.5928%.

Turning to `Cc1ccc(S(=O)(=O)N(C)C)cc1NC(=O)C(C)Cl` (stereo not drawn) [4-I06, 2-chloro-N-[5-(dimethylsulfamoyl)-2-methylphenyl]propanamide], the “% of control remaining” value was 99.3746%. In the case of `Cc1ccc(C=C(C#N)C(N)=O)c(C)c1` [9-M04, 2-cyano-3-(2,4-dimethylphenyl)prop-2-enamide] it was 93.0659%; in that of `O=C(CCl)Nc1cc2c(cc1[N+](=O)[O-])OCCCO2` [4-O05, 2-chloro-N-(8-nitro-3,4-dihydro-2H-1,5-benzodioxepin-7-yl)acetamide], 108.001%; in that of `C=CC(=O)Nc1ccc2c(c1)SCC(=O)N2` [1-C22, N-(3-oxo-3,4-dihydro-2H-1,4-benzothiazin-7-yl)prop-2-enamide], 102.99%.

Turning to `O=C(CCl)N1CCc2sccc2C1c1cccs1` (stereo not drawn) [4-L20, 2-chloro-1-[4-(thiophen-2-yl)-4H,5H,6H,7H-thieno[3,2-c]pyridin-5-yl]ethan-1-one], the “% of control remaining” value came to 86.6077%. In the case of `C=CC(=O)N(C)CC(=O)N1CCn2cccc2C1C` (stereo not drawn) [2-K10, N-methyl-N-(2-{1-methyl-1H,2H,3H,4H-pyrrolo[1,2-a]pyrazin-2-yl}-2-oxoethyl)prop-2-enamide] it was 87.108%; in that of `N#CC(=Cc1ccc(N2CCCCC2)cc1)C(=O)Nc1nccs1` [8-C04, 2-cyano-3-[4-(piperidin-1-yl)phenyl]-N-(1,3-thiazol-2-yl)prop-2-enamide], 87.3555%. Then `C=CC(=O)Nc1c2c(cc3c1CCC3)CCC2` [1-C11, N-(1,2,3,5,6,7-hexahydro-s-indacen-4-yl)prop-2-enamide], with 80.7175%; and `C=CC(=O)NCc1ccc(N2CCN(C)CC2)cc1` [3-I20, N-{[4-(4-methylpiperazin-1-yl)phenyl]methyl}prop-2-enamide], with 92.9719%; and `C=CC(=O)NC(c1ccc(F)cc1)c1ccn(C)n1` (stereo not drawn) [3-J20, N-[(4-fluorophenyl)(1-methyl-1H-pyrazol-3-yl)methyl]prop-2-enamide], with 93.6776%. Consider `N#CC(=Cc1ccc(F)cc1)C(=O)Nc1ccc(C(=O)O)cc1` [8-L07, 4-[2-cyano-3-(4-fluorophenyl)prop-2-enamido]benzoic acid], for which the “% of control remaining” value turned out to be 75.6628%. In the case of `CN(C)C(CNC(=O)CCl)c1ccccc1.Cl` (stereo not drawn) [4-B21, 2-chloro-N-[2-(dimethylamino)-2-phenylethyl]acetamide hydrochloride] it was 105.586%; in that of `CC(C)NC(=O)C(C#N)=Cc1c(Cl)cccc1Cl` [9-E13, 2-cyano-3-(2,6-dichlorophenyl)-N-(propan-2-yl)prop-2-enamide], 81.5092%; in that of `CC(NC(=O)CCl)c1nc(Cc2ccccc2)no1` (stereo not drawn) [6-L07, N-[1-(3-benzyl-1,2,4-oxadiazol-5-yl)ethyl]-2-chloroacetamide], 93.8857%. `COc1cc(C=C(C#N)C(=O)Nc2ccc(C)cc2)cc(Cl)c1O` [8-P05, 3-(3-chloro-4-hydroxy-5-methoxyphenyl)-2-cyano-N-(4-methylphenyl)prop-2-enamide]: the “% of control remaining” value was 76.6145%. Then `CC1Cc2cc(C(=O)CCl)ccc2N1S(C)(=O)=O` (stereo not drawn) [10-A04, 2-chloro-1-(1-methanesulfonyl-2-methyl-2,3-dihydro-1H-indol-5-yl)ethan-1-one], with 89.6162%; and `Cc1nn(-c2ccccc2)c(C)c1CN(C)C(=O)CCl` [7-B03, 2-chloro-N-[(3,5-dimethyl-1-phenyl-1H-pyrazol-4-yl)methyl]-N-methylacetamide], with 94.6308%. For `O=C(CCl)c1ccc(Oc2ccccc2)cc1` [10-G20, 2-chloro-1-(4-phenoxyphenyl)ethan-1-one], the “% of control remaining” value is reported as 25.2484%.

`C=CC(=O)N(C)CC(=O)Nc1ccc(N2CCOCC2=O)c(C)c1` [3-J07, N-methyl-N-({[3-methyl-4-(3-oxomorpholin-4-yl)phenyl]carbamoyl}methyl)prop-2-enamide]: the “% of control remaining” value worked out at 93.5012%.

On to `Cc1csc(C(C#N)C(=O)CCl)n1` (stereo not drawn) [10-D12, 4-chloro-2-(4-methyl-1,3-thiazol-2-yl)-3-oxobutanenitrile], for which the “% of control remaining” value was 93.5126%. In the case of `Cc1ccc(Cc2cnc(NC(=O)CCl)s2)cc1` [5-K03, 2-chloro-N-{5-[(4-methylphenyl)methyl]-1,3-thiazol-2-yl}acetamide] it was 125.081%; in that of `CN(CC1CCCCC1)C(=O)C(C)(C)NC(=O)CCl` [6-A19, 2-(2-chloroacetamido)-N-(cyclohexylmethyl)-N,2-dimethylpropanamide], 92.5206%. Then `C=CC(=O)NCc1ccnn1C` [1-H20, N-[(1-methyl-1H-pyrazol-5-yl)methyl]prop-2-enamide], with 96.9087%; and `O=C(CCl)NCCOc1ccc(F)cc1` [6-A08, 2-chloro-N-[2-(4-fluorophenoxy)ethyl]acetamide], with 102.683%; and `O=C(O)c1coc(C(=O)CCl)c1` [10-B07, 5-(2-chloroacetyl)furan-3-carboxylic acid], with 101.149%. Then `CCc1cc(SC#N)cc(CC)c1NC(=O)CCl` [4-J12, 2-chloro-N-[4-(cyanosulfanyl)-2,6-diethylphenyl]acetamide], with 87.9879%; and `CC(Cl)C(=O)Nc1sccc1C#N` (stereo not drawn) [5-E21, 2-chloro-N-(3-cyanothiophen-2-yl)propanamide], with 106.42%; and `Cc1cc(C=C(C#N)C(=O)Nc2ccccc2)c(C)n1CC(C)C` [9-A07, 2-cyano-3-[2,5-dimethyl-1-(2-methylpropyl)-1H-pyrrol-3-yl]-N-phenylprop-2-enamide], with 101.768%. Take `N#CC(=Cc1ccc2c(c1)OCCO2)C(=O)Nc1ccc(F)cc1` [9-K20, 2-cyano-3-(2,3-dihydro-1,4-benzodioxin-6-yl)-N-(4-fluorophenyl)prop-2-enamide]: the “% of control remaining” value is 88.3073%. With `C=CC(=O)NCC1(OC)CCC(C)CC1` (stereo not drawn) [1-P08, N-[(1-methoxy-4-methylcyclohexyl)methyl]prop-2-enamide], the “% of control remaining” value amounted to 69.9215%.

For the compound `C=CC(=O)N1CCC(S(=O)(=O)NC(C)C)C1` (stereo not drawn) [1-D19, 1-(prop-2-enoyl)-N-(propan-2-yl)pyrrolidine-3-sulfonamide], the “% of control remaining” value came to 86.846%.
